Results published in patent US20230220035A1 (DONG-A ST CO., LTD., published 2023).
Part of at least one peptide drawing is inferred or uncertain, most often the ends.

Tests used:
[1] = system: mice with high-fat-diet-induced obesity; assay: Body weight loss efficacy evaluation by 1-week repeated injection; format: in vivo, C57BL/6 mouse; details: 30 nmol/kg S.C. once a day x 7, high-fat-diet-induced obese C57BL/6 mice
[2] = system: ICR mice; assay: Glucose tolerance improvement effect in mice; format: in vivo; details: 30 nmol/kg S.C. 6 hours before oral glucose loading, fasted ICR mice, 2 hours

Row | Structure (SMILES) | cumulative feed consumption reduced compared to the vehicle control group [1] [%] | weight change from the initial body weight [1] [%] | reduction of blood glucose AUC compared to the glucose control group [2] [%]
1 | CCCCCCCCCCCCCCCCCC(=O)N[C@@H](CCC(=O)NCCOCCOCC(=O)NCCOCCOCC(=O)NCCCC[C@H](NC(=O)[C@H](CC(=O)O)NC(=O)[C@H](CO)NC(=O)[C@@H](NC(=O)[C@H](Cc1ccccc1)NC(=O)[C@@H](NC(=O)CNC(=O)[C@H](CCC(N)=O)NC(=O)C(C)(C)NC(=O)[C@@H](N)Cc1c[nH]cn1)[C@@H](C)O)[C@@H](C)O)C(=O)N[C@@H](CO)C(=O)N[C@@H](CCCCN)C(=O)N[C@@H](Cc1ccc(O)cc1)C(=O)N[C@@H](CC(C)C)C(=O)N[C@@H](CC(=O)O)C(=O)NC(C)(C)C(=O)N[C@@H](CCCNC(=N)N)C(=O)N[C@@H](CCCNC(=N)N)C(=O)N[C@@H](C)C(=O)N[C@@H](CCC(N)=O)C(=O)N[C@@H](CC(=O)O)C(=O)N[C@@H](Cc1ccccc1)C(=O)N[C@H](C(=O)N[C@@H](CCC(N)=O)C(=O)N[C@@H](Cc1c[nH]c2ccccc12)C(=O)N[C@@H](CC(C)C)C(=O)N[C@@H](CCSC)C(=O)N[C@@H](CC(N)=O)C(=O)N[C@H](C(=O)N[C@@H](CCCCN)C(=O)N[C@@H](CCC(=O)O)C(=O)N[C@@H](Cc1ccc(O)cc1)C(=O)N[C@@H](CCC(=O)O)C(=O)N[C@@H](CCCCNC(=O)CCCCCCCCCCCCC(=O)O)C(=O)N[C@@H](CCC(=O)O)C(=O)N[C@@H](Cc1ccc(O)cc1)C(=O)N[C@@H](CCC(=O)O)C(=O)O)[C@@H](C)O)C(C)C)C(=O)O [Compound 1] | 75 | −44.9 | 
2 | CCCCCCCCCCCCCCCCCC(=O)N[C@@H](CCC(=O)NCCOCCOCC(=O)NCCOCCOCC(=O)NCCCC[C@H](NC(=O)[C@H](CC(=O)O)NC(=O)[C@H](CO)NC(=O)[C@@H](NC(=O)[C@H](Cc1ccccc1)NC(=O)[C@@H](NC(=O)CNC(=O)[C@H](CCC(N)=O)NC(=O)C(C)(C)NC(=O)[C@@H](N)Cc1c[nH]cn1)[C@@H](C)O)[C@@H](C)O)C(=O)N[C@@H](CO)C(=O)N[C@@H](CCCCN)C(=O)N[C@@H](Cc1ccc(O)cc1)C(=O)N[C@@H](CC(C)C)C(=O)N[C@@H](CC(=O)O)C(=O)NC(C)(C)C(=O)N[C@@H](CCCNC(=N)N)C(=O)N[C@@H](CCCNC(=N)N)C(=O)N[C@@H](C)C(=O)N[C@@H](CCC(N)=O)C(=O)N[C@@H](CC(=O)O)C(=O)N[C@@H](Cc1ccccc1)C(=O)N[C@H](C(=O)N[C@@H](CCC(N)=O)C(=O)N[C@@H](Cc1c[nH]c2ccccc12)C(=O)N[C@@H](CC(C)C)C(=O)N[C@@H](CCSC)C(=O)N[C@@H](CC(N)=O)C(=O)N[C@H](C(=O)N[C@@H](CCCCN)C(=O)N[C@@H](CCC(=O)O)C(=O)N[C@@H](Cc1ccc(O)cc1)C(=O)N[C@@H](CCC(=O)O)C(=O)N[C@@H](CCCCNC(=O)COCCOCCNC(=O)COCCOCCNC(=O)COCCOCCNC(=O)CC[C@H](NC(=O)CCCCCCCCCCCCCCCCC(=O)O)C(=O)O)C(=O)N[C@@H](CCC(=O)O)C(=O)N[C@@H](Cc1ccc(O)cc1)C(=O)N[C@@H](CCC(=O)O)C(=O)O)[C@@H](C)O)C(C)C)C(=O)O [Compound 5] | 83 | −30.3 | 
3 | CCCCCCCCCCCCCCCCCC(=O)N[C@@H](CCC(=O)NCCOCCOCC(=O)NCCOCCOCC(=O)NCCCC[C@H](NC(=O)[C@H](CC(=O)O)NC(=O)[C@H](CO)NC(=O)[C@@H](NC(=O)[C@H](Cc1ccccc1)NC(=O)[C@@H](NC(=O)CNC(=O)[C@H](CCC(N)=O)NC(=O)C(C)(C)NC(=O)[C@@H](N)Cc1c[nH]cn1)[C@@H](C)O)[C@@H](C)O)C(=O)N[C@@H](CO)C(=O)N[C@@H](CCCCN)C(=O)N[C@@H](Cc1ccc(O)cc1)C(=O)N[C@@H](CC(C)C)C(=O)N[C@@H](CC(=O)O)C(=O)NC(C)(C)C(=O)N[C@@H](CCCNC(=N)N)C(=O)N[C@@H](CCCNC(=N)N)C(=O)N[C@@H](C)C(=O)N[C@@H](CCC(N)=O)C(=O)N[C@@H](CC(=O)O)C(=O)N[C@@H](Cc1ccccc1)C(=O)N[C@H](C(=O)N[C@@H](CCC(N)=O)C(=O)N[C@@H](Cc1c[nH]c2ccccc12)C(=O)N[C@@H](CC(C)C)C(=O)N[C@@H](CCSC)C(=O)N[C@@H](CC(N)=O)C(=O)N[C@H](C(=O)N[C@@H](CCCCN)C(=O)N[C@@H](CCC(=O)O)C(=O)N[C@@H](Cc1ccc(O)cc1)C(=O)N[C@@H](CCC(=O)O)C(=O)N[C@@H](CCCCNC(=O)[C@@H](N)CCCCNC(=O)COCCOCCNC(=O)COCCOCCNC(=O)COCCOCCNC(=O)CC[C@H](NC(=O)CCCCCCCCCCCCCCCCC(=O)O)C(=O)O)C(=O)N[C@@H](CCC(=O)O)C(=O)N[C@@H](Cc1ccc(O)cc1)C(=O)N[C@@H](CCC(=O)O)C(=O)O)[C@@H](C)O)C(C)C)C(=O)O [Compound 6] | 75 | −26.9 | 
4 | CCCCCCCCCCCCCCCCCC(=O)N[C@@H](CCC(=O)NCCOCCOCC(=O)NCCOCCOCC(=O)NCCCC[C@H](NC(=O)[C@H](CC(=O)O)NC(=O)[C@H](CO)NC(=O)[C@@H](NC(=O)[C@H](Cc1ccccc1)NC(=O)[C@@H](NC(=O)CNC(=O)[C@H](CCC(N)=O)NC(=O)C(C)(C)NC(=O)[C@@H](N)Cc1c[nH]cn1)[C@@H](C)O)[C@@H](C)O)C(=O)N[C@@H](CO)C(=O)N[C@@H](CCCCN)C(=O)N[C@@H](Cc1ccc(O)cc1)C(=O)N[C@@H](CC(C)C)C(=O)N[C@@H](CC(=O)O)C(=O)NC(C)(C)C(=O)N[C@@H](CCCNC(=N)N)C(=O)N[C@@H](CCCNC(=N)N)C(=O)N[C@@H](C)C(=O)N[C@@H](CCC(N)=O)C(=O)N[C@@H](CC(=O)O)C(=O)N[C@@H](Cc1ccccc1)C(=O)N[C@H](C(=O)N[C@@H](CCC(N)=O)C(=O)N[C@@H](Cc1c[nH]c2ccccc12)C(=O)N[C@@H](CC(C)C)C(=O)N[C@@H](CCSC)C(=O)N[C@@H](CC(N)=O)C(=O)N[C@H](C(=O)N[C@@H](CCCCN)C(=O)N[C@@H](CCC(=O)O)C(=O)N[C@@H](Cc1ccc(O)cc1)C(=O)N[C@@H](CCC(=O)O)C(=O)N[C@@H](CCCCNC(=O)[C@@H](N)CCCCNC(=O)CCCCCCCCCCCCCCCCC(=O)O)C(=O)N[C@@H](CCC(=O)O)C(=O)N[C@@H](Cc1ccc(O)cc1)C(=O)N[C@@H](CCC(=O)O)C(=O)O)[C@@H](C)O)C(C)C)C(=O)O [Compound 4] | 67 | −24.3 | 
5 | CCCCCCCCCCCCCCCCCC(=O)N[C@@H](CCC(=O)NCCOCCOCC(=O)NCCOCCOCC(=O)NCCCC[C@H](NC(=O)[C@H](CC(=O)O)NC(=O)[C@H](CO)NC(=O)[C@@H](NC(=O)[C@H](Cc1ccccc1)NC(=O)[C@@H](NC(=O)CNC(=O)[C@H](CCC(N)=O)NC(=O)C(C)(C)NC(=O)[C@@H](N)Cc1c[nH]cn1)[C@@H](C)O)[C@@H](C)O)C(=O)N[C@@H](CO)C(=O)N[C@@H](CCCCN)C(=O)N[C@@H](Cc1ccc(O)cc1)C(=O)N[C@@H](CC(C)C)C(=O)N[C@@H](CC(=O)O)C(=O)NC(C)(C)C(=O)N[C@@H](CCCNC(=N)N)C(=O)N[C@@H](CCCNC(=N)N)C(=O)N[C@@H](C)C(=O)N[C@@H](CCC(N)=O)C(=O)N[C@@H](CC(=O)O)C(=O)N[C@@H](Cc1ccccc1)C(=O)N[C@H](C(=O)N[C@@H](CCC(N)=O)C(=O)N[C@@H](Cc1c[nH]c2ccccc12)C(=O)N[C@@H](CC(C)C)C(=O)N[C@@H](CCSC)C(=O)N[C@@H](CC(N)=O)C(=O)N[C@H](C(=O)N[C@@H](CCCCN)C(=O)N[C@@H](CCC(=O)O)C(=O)N[C@@H](Cc1ccc(O)cc1)C(=O)N[C@@H](CCC(=O)O)C(=O)N[C@@H](CCCCNC(=O)CCCCCCCCCCCCCCCCC(N)=O)C(=O)N[C@@H](CCC(=O)O)C(=O)N[C@@H](Cc1ccc(O)cc1)C(=O)N[C@@H](CCC(=O)O)C(=O)O)[C@@H](C)O)C(C)C)C(=O)O [Compound 7] | 10 | −6.8 | 33.9
6 | CCCCCCCCCCCCCCCCCC(=O)N[C@@H](CCC(=O)NCCOCCOCC(=O)NCCOCCOCC(=O)NCCCC[C@H](NC(=O)[C@H](CC(=O)O)NC(=O)[C@H](CO)NC(=O)[C@@H](NC(=O)[C@H](Cc1ccccc1)NC(=O)[C@@H](NC(=O)CNC(=O)[C@H](CCC(N)=O)NC(=O)C(C)(C)NC(=O)[C@@H](N)Cc1c[nH]cn1)[C@@H](C)O)[C@@H](C)O)C(=O)N[C@@H](CO)C(=O)N[C@@H](CCCCN)C(=O)N[C@@H](Cc1ccc(O)cc1)C(=O)N[C@@H](CC(C)C)C(=O)N[C@@H](CC(=O)O)C(=O)NC(C)(C)C(=O)N[C@@H](CCCNC(=N)N)C(=O)N[C@@H](CCCNC(=N)N)C(=O)N[C@@H](C)C(=O)N[C@@H](CCC(N)=O)C(=O)N[C@@H](CC(=O)O)C(=O)N[C@@H](Cc1ccccc1)C(=O)N[C@H](C(=O)N[C@@H](CCC(N)=O)C(=O)N[C@@H](Cc1c[nH]c2ccccc12)C(=O)N[C@@H](CC(C)C)C(=O)N[C@@H](CCSC)C(=O)N[C@@H](CC(N)=O)C(=O)N[C@H](C(=O)N[C@@H](CCCCN)C(=O)N[C@@H](CCC(=O)O)C(=O)N[C@@H](Cc1ccc(O)cc1)C(=O)N[C@@H](CCC(=O)O)C(=O)N[C@@H](CCCCNC(=O)CCCCCCCCCCCCCCC(=O)O)C(=O)N[C@@H](CCC(=O)O)C(=O)N[C@@H](Cc1ccc(O)cc1)C(=O)N[C@@H](CCC(=O)O)C(=O)O)[C@@H](C)O)C(C)C)C(=O)O [Compound 2] | 46 | −26.9 | 42.1
